Measured values as given in PubChem BioAssay AID1452 (National Center for Advancing Translational Sciences (NCATS), 2008).
Among all 150,000 compounds or so, about 190 (0.13%) were called active. Inconclusive means that the source gave no clear call. Such entries were picked first, then a sample of the others. The call rests on the fitted dose curve; in most records, active means well fitted inhibition curve with a large enough effect; inconclusive means small, poorly fitted or top-dose-only effect; inactive means flat fitted curve, though single readings scatter. Where the call is inconclusive, the potency comes from a doubtful curve fit.

The compounds below were run against Polyunsaturated fatty acid lipoxygenase ALOX12 (Homo sapiens) (UniProt P18054) (assay: qHTS Assay for Inhibitors of 12-hLO (12-human lipoxygenase)). Conditions: purified 12-hLO, xylenol orange hydroperoxide absorbance; series mostly up to 57.1 µM; activity change, negative = inhibition: at the top concentration.
UniProt P18054, sequence (P18054 whole entry, looked up): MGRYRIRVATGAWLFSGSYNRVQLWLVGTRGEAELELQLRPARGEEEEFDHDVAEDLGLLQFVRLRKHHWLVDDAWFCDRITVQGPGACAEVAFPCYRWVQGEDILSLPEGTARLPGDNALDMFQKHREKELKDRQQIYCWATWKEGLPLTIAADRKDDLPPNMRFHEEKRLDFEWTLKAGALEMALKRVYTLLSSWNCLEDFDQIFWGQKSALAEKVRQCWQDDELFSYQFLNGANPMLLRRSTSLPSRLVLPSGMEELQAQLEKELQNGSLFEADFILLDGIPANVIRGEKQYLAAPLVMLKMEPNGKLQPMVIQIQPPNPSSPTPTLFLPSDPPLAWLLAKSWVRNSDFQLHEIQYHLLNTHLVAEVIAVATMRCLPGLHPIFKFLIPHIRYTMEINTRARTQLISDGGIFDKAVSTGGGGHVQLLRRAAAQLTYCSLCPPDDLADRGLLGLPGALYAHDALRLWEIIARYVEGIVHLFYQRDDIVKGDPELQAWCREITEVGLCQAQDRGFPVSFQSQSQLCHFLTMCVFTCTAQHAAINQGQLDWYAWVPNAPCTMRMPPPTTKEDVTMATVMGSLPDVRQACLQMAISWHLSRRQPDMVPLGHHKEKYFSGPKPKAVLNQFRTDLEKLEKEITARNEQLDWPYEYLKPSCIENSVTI
Outline: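 Hydroperoxide formation by human 12-lipoxygenase from 40 uM arachidonic acid was followed colorimetrically via ferric-xylenol orange complex, using the 573/405 nm absorbance ratio. Enzyme concentration was 150 nM, with 30 min reaction at room temperature.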
Further: nearly all actives have a fitted effect of over 55% in size.
On the % scale 0 is the no-effect control and ±100 the full control effect; potency means the concentration at half of the fitted maximal effect; tags describe the fitted curve by direction and shape.

Potency, active:
CCOC(=O)C1(C)/C(=N/Nc2cccc(Cl)c2)C(=O)C(=O)N1c1ccccc1 (configuration not stated) 3.16 µM
O=c1cc(-c2ccccc2Cl)oc2c(NS(=O)(=O)c3cc(Cl)cc(Cl)c3O)ccc(O)c12 0.282 µM

Potency, inconclusive:
Cc1ccc(CNc2ccc(N3CCOCC3)cc2)s1 28.2 µM [inhibitor, single point]
COc1ccc(NS(=O)(=O)c2ccc(N3CCCC3)c(NC(=S)Nc3cccc(C)c3C)c2)cc1 12.6 µM [inhibitor, partial curve]
COc1c(O)cc2oc3cc(O)c(CC=C(C)C)c(O)c3c(=O)c2c1CC=C(C)C 12.6 µM [inhibitor, partial curve]
Cc1ccc(C(=O)Oc2ccc(Cl)c3cccnc23)cc1[N+](=O)[O-] 1.41 µM [inhibitor, partial curve]
NS(=O)(=O)c1ccc(CNC(=S)NCc2ccc(Cl)cc2)cc1 39.8 µM [inhibitor, single point]
CC(=O)c1ccc(NC(=O)Nc2ccc(NS(=O)(=O)c3ccc(C)cc3)cc2)cc1 17.8 µM [inhibitor, partial curve]
O=c1cc(-c2ccc(Cl)c(Cl)c2)[nH][nH]1 8.91 µM [inhibitor, partial curve]
CCCC(=O)C1=C(SCC)CC(C)(C)C(C(=O)OC)C1=O (configuration not stated) 31.6 µM [inhibitor, single point]
OC[C@H](CCc1c[nH]c2ccccc12)c1c[nH]c2ccccc12 3.98 µM [inhibitor, partial curve]
COC(=O)c1ccccc1NC(=S)NC(=O)c1ccccc1C 28.2 µM [inhibitor, partial curve]
N#C/C(=N\Nc1ccc(Cl)cc1)C(=O)c1ccccc1 39.8 µM [inhibitor, single point]
COc1ccc(OC)c(C2CC(=O)N3CN(c4ccccc4)CSC3=C2C#N)c1 (configuration not stated) 35.5 µM [inhibitor, single point]
CC(C)(C)NC(=S)Nc1ccc(Nc2ccccc2)cc1 14.1 µM [inhibitor, partial curve]
CNC(=S)N1N=C(c2ccccc2)CC1c1ccc(Br)cc1 (configuration not stated) 28.2 µM [inhibitor, single point]
O=C(CC12CC3CC(CC(C3)C1)C2)NCC(=O)N1CCc2ccccc2C1 6.31 µM [inhibitor, single point]
CCOC(=O)C1=C(C)N=c2s/c(=C/c3ccco3)c(=O)n2C1c1cccc(OC)c1 (configuration not stated) 12.6 µM [inhibitor, partial curve]
N#CC1=C2SCN(c3ccccc3)CN2C(=O)CC1c1ccccc1Cl (configuration not stated) 31.6 µM [inhibitor, single point]
Cc1ccc(N/C=C(/C#N)c2ccsc2)cc1 15.8 µM [inhibitor, partial curve]
CN1CCN(S(=O)(=O)c2ccc(NC(=S)NC(=O)c3ccc(Cl)cc3)cc2)CC1 28.2 µM [inhibitor, partial curve]
O=Nc1c(O)n(Cc2ccc(Cl)cc2Cl)c2ccccc12 31.6 µM [inhibitor, single point]
O=C1CC(N(O)c2ccccc2)C(=O)N1c1cc(Cl)cc(Cl)c1 (configuration not stated) 14.1 µM [inhibitor, partial curve]
CC(C)N1C(=O)CC(Nc2ccc(N3CCOCC3)cc2)C1=O (configuration not stated) 15.8 µM [inhibitor, partial curve]
CC(C)C(=O)N(c1ccc2oc(=O)sc2c1)S(=O)(=O)c1ccccc1 25.1 µM [inhibitor, single point]
COc1cccc(/C=N/NC(=O)CSc2nnc(C)n2-c2ccccc2)c1O 28.2 µM [inhibitor, single point]
CCSc1ncc(/C=N/Nc2ccc(Cl)cc2)n1C 15.8 µM [inhibitor, partial curve]
Cc1ccc(S(=O)(=O)Nc2ccc3nc(-c4cccn4C)[nH]c3c2)cc1 3.16 µM [inhibitor, single point]
C/C(=N\Nc1ccc(F)cc1F)c1ccc(F)cc1 12.6 µM [inhibitor, partial curve]
Cc1cc(C)c2nc(NNC(=O)c3ccc(S(=O)(=O)N4CCc5ccccc5C4)cc3)sc2c1 1.41 µM [inhibitor, full curve]
Cc1csc(N/N=C/c2ccc(O)c([N+](=O)[O-])c2)n1 17.8 µM [inhibitor, partial curve]
Cc1ccc(NC(=S)NCCSc2ccc(Cl)cc2)c(C)c1 14.1 µM [inhibitor, partial curve]
Oc1ccc(CNc2ccccc2O)cc1 22.4 µM [inhibitor, partial curve, poor fit]
COc1ccc(C(Nc2ccccn2)c2c(NC(=O)c3ccco3)sc(C)c2C)cc1 (configuration not stated) 11.2 µM [inhibitor, partial curve]
O=C(NC(=S)Nn1cnc2c(cnn2-c2ccccc2)c1=O)c1ccccc1 28.2 µM [inhibitor, partial curve]
O=[N+]([O-])c1ccc2c(N=Nc3ccc4ccccc4c3O)c(O)cc(S(=O)(=O)O)c2c1 3.16 µM [inhibitor, single point]
COc1ccc(NC(=O)c2c(F)cccc2F)cc1S(=O)(=O)Nc1ccc(Br)cc1 2.51 µM [inhibitor, full curve, poor fit]
S=C(S)O[C@@H]1C[C@@H]2C[C@H]1[C@@H]1CCC[C@H]21 35.5 µM [inhibitor, single point]
CCOC(=O)C1(C)/C(=N/Nc2ccc(Cl)cc2)C(=O)C(=O)N1c1ccccc1 (configuration not stated) 15.8 µM [inhibitor, partial curve]
CSc1ccc(S(=O)(=O)Nc2ccc(S(=O)(=O)Nc3ccc(C)cc3)cc2)cc1 14.1 µM [inhibitor, partial curve]
CNC(=S)N/N=C/c1cc(C)n(-c2ccc(Cl)c(Cl)c2)c1C 35.5 µM [inhibitor, single point]
Clc1ccc(CSc2nnc(-c3cccnc3)n2Cc2ccco2)c(Cl)c1 17.8 µM [inhibitor, partial curve]
O=[N+]([O-])c1ccc(NNC(=S)Nc2ccc(F)cc2)cc1 39.8 µM [inhibitor, single point]
Cc1ccc(-c2cc(-c3ccccc3Cl)c(C#N)c(N)n2)o1 28.2 µM [inhibitor, partial curve]
Oc1ccccc1-c1cc(-c2ccccc2Cl)[nH]n1 6.31 µM [inhibitor, partial curve]
c1cn2cc(-c3ccc4c(c3)OCO4)nc2s1 39.8 µM [inhibitor, single point]

Potency, inactive:
Cc1cccc(Nc2ccccc2C(=O)O)c1C

Activity change, negative = inhibition, inactive:
BrC(=C\c1ccccc1)/C=N/Nc1nc2ccccc2[nH]1 -7.03%
Cc1[nH]nc2c1C(c1ccoc1)C(C#N)=C(N)O2 (configuration not stated) -0.86%
CCOc1ccc(Cl)cc1/C=N/O -10.4%
O=C(NCCCc1ccccc1)c1ccccc1O -2.48%
O=C(CSc1nnc(-c2ccc(Br)cc2)n1C1CCCCC1)N1CCCC1 -3.19%
Cc1nc2cnc(Oc3cccc(Cl)c3)nc2n(CCc2ccccc2)c1=O -3.56%
CC1(C)CC(=O)C=C(OC(=O)c2ccc(Cl)cc2)C1 0.25%
Cc1nn(Cc2ccccc2)c(C)c1NC(=O)CCCn1nc([N+](=O)[O-])c(Cl)c1C -3.8%
COc1ccc(-c2ccc(-c3nc4c(c(=O)[nH]c(=O)n4Cc4ccccc4)n3C)o2)c([N+](=O)[O-])c1 -0.914%
O=C(NCc1ccccc1)c1ccc(S(=O)(=O)C(F)F)cc1 -1.31%
CCN(CC)S(=O)(=O)c1ccc(-c2nnc(SC)o2)cc1 3.74%
CCOC(=O)NC(=O)c1cn(CCN(C)C)c(=O)[nH]c1=O -1.04%
Cc1ccc(C)c(NS(=O)(=O)c2cc(C(=O)O)ccc2Cl)c1 -0.901%
O=C(OC[C@@H]1O[C@@](O)(COC(=O)c2cccnc2)[C@H](OC(=O)c2cccnc2)[C@H]1OC(=O)c1cccnc1)c1cccnc1 0.984% [at 0.00818 µM]
Cc1ccc(C(=O)N/C(=C/c2cccs2)C(=O)NCc2ccco2)cc1 1.79%
CC(=O)NC1C2CN3CCN(C2)CC1(Cc1ccccc1)C3 (configuration not stated) -0.0762%
COc1ccc(CC(=O)N2CCCC(C)C2)cc1 (configuration not stated) -4.79%
Cc1ccc(S(=O)(=O)NC2CCCCC2)c2nsnc12 0.025%
O=C(Nc1ccccc1)C1CC=CCC1C(=O)OCC1CCCO1 (configuration not stated) -18.1%
COc1ccc(S(=O)(=O)Cc2ccc(C(=O)N3CCCC3)o2)cc1 3.14%
COc1ccc(-c2cc(C(=O)O)c3ccccc3n2)c(OC)c1 -14%
CCn1c(SCC(=O)c2ccccc2)nnc1-c1cnccn1 -4.37%
CN(CCOc1ccc(-c2ccn(S(=O)(=O)c3cccc4ccccc34)n2)cc1)c1ccccn1 -2.3%
CS(=O)(=O)CCNCc1nc(-c2ccc3ncnc(Nc4ccc(OCc5cccc(F)c5)c(Cl)c4)c3c2)cs1 -3.73%
O=C(Nc1ccon1)c1ccc2c(c1)OCO2 -2.49%
